Measured values published in the supplement of paper PMC4604168 (melanoma cell lines).
The other results are listed elsewhere or left out. Many values rest on one well or one pass, so single values are uncertain.

Columns and labels:
Test in all cases: cell count relative to DMSO control; melanoma cells; higher = more viable cells
Details in all cases: library dose: low library concentration; 72 h
[1] = test system: MZ2-MEL
[2] = test system: MeWo
[3] = test system: RPMI7951
[4] = test system: RVH-421
[5] = test system: SkMel28
[6] = test system: SkMel2
[7] = test system: SkMel30
[8] = test system: UACC62
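Also: cell number obtained by counting DAPI-stained nuclei in high-throughput microscope images with image analysis software, screen run in 1,536-well plates.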

`Cc1cn(-c2cc(NC(=O)c3ccc(C)c(Nc4nccc(-c5cccnc5)n4)c3)cc(C(F)(F)F)c2)cn1` [nilotinib] + C[C@@H](Oc1cc(-c2cnn(C3CCNCC3)c2)cnc1N)c1c(Cl)ccc(F)c1Cl [Crizotinib] (first compound 0.2 µM, partner dose 0.2 µM) showed a cell count [1] of 93.5%, a cell count [2] of 111% and a cell count [3] of 118%. For the same molecule, the cell count [4] was 106%, the cell count [5] was 92% and the cell count [6] was 0.456%. The cell count [7] was 111% and the cell count [8] was 108%.
`Cc1cc(Nc2cc(N3CCN(C)CC3)nc(/C=C/c3ccccc3)n2)n[nH]1` + Nc1ncn([C@H]2C[C@H](O)[C@@H](CO)O2)c(=O)n1 [decitabine] (first compound 0.04 µM, partner dose 0.1 µM) was tested, and the cell count [1] was 84.5%, the cell count [2] was 91.9% and the cell count [3] was 81.3%. The cell count [4] was 83.4%, the cell count [5] was 103% and the cell count [6] was 95.9%. It also gave a cell count [7] of 114% and a cell count [8] of 70.4%.
For `COc1ccc(C2=N[C@@H](c3ccc(Cl)cc3)[C@@H](c3ccc(Cl)cc3)N2C(=O)N2CCNC(=O)C2)c(OC(C)C)c1` [Nutlin-3] + C[C@]1(c2nc3c(C(N)=O)cccc3[nH]2)CCCN1 [Veliparib] (first compound 0.1 µM, partner dose 1.4 µM), the cell count [1] was 93.1%, the cell count [2] was 106% and the cell count [3] was 99.7%. For the same molecule, the cell count [4] was 107%, the cell count [5] was 82.5% and the cell count [6] was 89.6%. For the same molecule, the cell count [7] was 91.7% and the cell count [8] was 74.8%.
`COc1ccc(C2=N[C@@H](c3ccc(Cl)cc3)[C@@H](c3ccc(Cl)cc3)N2C(=O)N2CCNC(=O)C2)c(OC(C)C)c1` [Nutlin-3] + CCCS(=O)(=O)Nc1ccc(F)c(C(=O)c2c[nH]c3ncc(Cl)cc23)c1F [PLX4720] (first compound 0.1 µM, partner dose 0.08 µM) was tested, and the cell count [1] was 93.4%, the cell count [2] was 94.7% and the cell count [3] was 108%. It also gave a cell count [4] of 80.1%, a cell count [5] of 95.8% and a cell count [6] of 89.9%. It also gave a cell count [7] of 120% and a cell count [8] of 80.4%.
Work on `CC(C)C[C@H](NC(=O)[C@H](Cc1ccccc1)NC(=O)c1cnccn1)B(O)O` [Bortezomib] + C=C(c1ccc(C(=O)O)cc1)c1cc2c(cc1C)C(C)(C)CCC2(C)C [Bexarotene] (first compound 0.001 µM, partner dose 2 µM) yielded a cell count [1] of 80%, a cell count [2] of 62% and a cell count [3] of 66.6%. For the same molecule, the cell count [4] was 53.2%, the cell count [5] was 69.9% and the cell count [6] was 91.4%. The cell count [7] was 76.4% and the cell count [8] was 63.3%.
With `COc1ccc(C2=N[C@@H](c3ccc(Cl)cc3)[C@@H](c3ccc(Cl)cc3)N2C(=O)N2CCNC(=O)C2)c(OC(C)C)c1` [Nutlin-3] + Cn1c(Nc2ccc(C(F)(F)F)cc2)nc2cc(Oc3ccnc(-c4ncc(C(F)(F)F)[nH]4)c3)ccc21 [CHIR265] (first compound 0.1 µM, partner dose 0.08 µM) the cell count [1] was 88.1%, the cell count [2] was 72.2% and the cell count [3] was 83.8%. It also gave a cell count [4] of 60.3%, a cell count [5] of 49.8% and a cell count [6] of 90.9%. For the same molecule, the cell count [7] was 67.5% and the cell count [8] was 45.7%.
`COc1ccc(C2=N[C@@H](c3ccc(Cl)cc3)[C@@H](c3ccc(Cl)cc3)N2C(=O)N2CCNC(=O)C2)c(OC(C)C)c1` [Nutlin-3] + O=C(O)c1ccc2c(c1)nc(Nc1cccc(Cl)c1)c1ccncc12 [CX4945] (first compound 0.1 µM, partner dose 0.4 µM) gave a cell count [1] of 99.1%, a cell count [2] of 87.2% and a cell count [3] of 80.3%. The cell count [4] was 95.4%, the cell count [5] was 84.1% and the cell count [6] was 95.5%. The cell count [7] was 105% and the cell count [8] was 88.4%.
`COc1ccc(C2=N[C@@H](c3ccc(Cl)cc3)[C@@H](c3ccc(Cl)cc3)N2C(=O)N2CCNC(=O)C2)c(OC(C)C)c1` [Nutlin-3] + COc1ccc(Cl)c(Nc2nc3ccccc3nc2NS(=O)(=O)c2cccc(NC(=O)C(C)(C)N)c2)c1 [XL147] (first compound 0.1 µM, partner dose 0.8 µM) was tested, and the cell count [1] was 99.2%, the cell count [2] was 97.3% and the cell count [3] was 106%. It also gave a cell count [4] of 83.1%, a cell count [5] of 93.2% and a cell count [6] of 106%. It also gave a cell count [7] of 92.6% and a cell count [8] of 84.9%.
Work on `CC(C)C[C@H](NC(=O)[C@H](Cc1ccccc1)NC(=O)c1cnccn1)B(O)O` [Bortezomib] + CNC(=O)c1cc(Oc2ccc(NC(=O)Nc3ccc(Cl)c(C(F)(F)F)c3)cc2)ccn1 [sorafenib] (first compound 0.001 µM, partner dose 0.4 µM) yielded a cell count [1] of 47.6%, a cell count [2] of 73.1% and a cell count [3] of 57.4%. The cell count [4] was 49.1%, the cell count [5] was 90.6% and the cell count [6] was 98.1%. The cell count [7] was 83% and the cell count [8] was 55.5%.
`Cc1cn(-c2cc(NC(=O)c3ccc(C)c(Nc4nccc(-c5cccnc5)n4)c3)cc(C(F)(F)F)c2)cn1` [nilotinib] + Cn1sc(=O)n(Cc2ccccc2)c1=O [TDZD-8] (first compound 0.2 µM, partner dose 0.4 µM) showed a cell count [1] of 112%, a cell count [2] of 105% and a cell count [3] of 101%. For the same molecule, the cell count [4] was 101%, the cell count [5] was 142% and the cell count [6] was 93.5%. It also gave a cell count [7] of 90.4% and a cell count [8] of 115%.
`CC(C)C[C@H](NC(=O)[C@H](Cc1ccccc1)NC(=O)c1cnccn1)B(O)O` [Bortezomib] + Nc1ccn([C@@H]2O[C@H](CO)[C@@H](O)C2(F)F)c(=O)n1 [gemcitabine] (first compound 0.001 µM, partner dose 0.0004 µM) showed a cell count [1] of 76.6%, a cell count [2] of 77.3% and a cell count [3] of 74.7%. It also gave a cell count [4] of 45.1%, a cell count [5] of 99.4% and a cell count [6] of 105%. It also gave a cell count [7] of 75.6% and a cell count [8] of 80.5%.
Work on `Cc1cn(-c2cc(NC(=O)c3ccc(C)c(Nc4nccc(-c5cccnc5)n4)c3)cc(C(F)(F)F)c2)cn1` [nilotinib] + Clc1ccc(Nc2nnc(Cc3ccncc3)c3ccccc23)cc1 [vatalanib] (first compound 0.2 µM, partner dose 2 µM) yielded a cell count [1] of 85.3%, a cell count [2] of 73.1% and a cell count [3] of 88.5%. For the same molecule, the cell count [4] was 83.8%, the cell count [5] was 110% and the cell count [6] was 107%. It also gave a cell count [7] of 104% and a cell count [8] of 87.7%.
`Cc1cc(Nc2cc(N3CCN(C)CC3)nc(/C=C/c3ccccc3)n2)n[nH]1` + C[C@@H](Oc1cc(-c2cnn(C3CCNCC3)c2)cnc1N)c1c(Cl)ccc(F)c1Cl [Crizotinib] (first compound 0.04 µM, partner dose 0.2 µM) was tested, and the cell count [1] was 99.1%, the cell count [2] was 87% and the cell count [3] was 84.4%. It also gave a cell count [4] of 90%, a cell count [5] of 86.1% and a cell count [6] of 94.2%. For the same molecule, the cell count [7] was 108% and the cell count [8] was 88.3%.
For `Cc1cn(-c2cc(NC(=O)c3ccc(C)c(Nc4nccc(-c5cccnc5)n4)c3)cc(C(F)(F)F)c2)cn1` [nilotinib] + CS(=O)(=O)c1ccc(C(=O)Nc2ccc(Cl)c(-c3ccccn3)c2)c(Cl)c1 [vismodegib] (first compound 0.2 µM, partner dose 1 µM), the cell count [1] was 102%, the cell count [2] was 98.4% and the cell count [3] was 88.7%. It also gave a cell count [4] of 105%, a cell count [5] of 93.7% and a cell count [6] of 98.2%. The cell count [7] was 81.2% and the cell count [8] was 122%.
`Cc1cn(-c2cc(NC(=O)c3ccc(C)c(Nc4nccc(-c5cccnc5)n4)c3)cc(C(F)(F)F)c2)cn1` [nilotinib] + NC(=O)c1ccc(N(C(N)=O)c2c(F)cccc2F)nc1-c1ccc(F)cc1F [VX702] (first compound 0.2 µM, partner dose 0.4 µM) gave a cell count [1] of 87.5%, a cell count [2] of 113% and a cell count [3] of 71%. The cell count [4] was 121%, the cell count [5] was 104% and the cell count [6] was 95.2%. It also gave a cell count [7] of 83.9% and a cell count [8] of 74.7%.
In the case of `Cn1c(=O)n(-c2ccc(C(C)(C)C#N)cc2)c2c3cc(-c4cnc5ccccc5c4)ccc3ncc21` + Nc1ncn([C@H]2C[C@H](O)[C@@H](CO)O2)c(=O)n1 [decitabine] (first compound 0.004 µM, partner dose 0.1 µM), the cell count [1] is reported as 82.6%, the cell count [2] is reported as 78.1% and the cell count [3] is reported as 92.6%. The cell count [4] was 84%, the cell count [5] was 74.7% and the cell count [6] was 95.2%. It also gave a cell count [7] of 81.1% and a cell count [8] of 78.5%.
Work on `COc1ccc(C2=N[C@@H](c3ccc(Cl)cc3)[C@@H](c3ccc(Cl)cc3)N2C(=O)N2CCNC(=O)C2)c(OC(C)C)c1` [Nutlin-3] + C=C(c1ccc(C(=O)O)cc1)c1cc2c(cc1C)C(C)(C)CCC2(C)C [Bexarotene] (first compound 0.1 µM, partner dose 2 µM) yielded a cell count [1] of 95.5%, a cell count [2] of 86.2% and a cell count [3] of 88.2%. The cell count [4] was 94.8%, the cell count [5] was 49.6% and the cell count [6] was 86.6%. The cell count [7] was 104% and the cell count [8] was 70.8%.
`Cc1cc(Nc2cc(N3CCN(C)CC3)nc(/C=C/c3ccccc3)n2)n[nH]1` + CCCS(=O)(=O)Nc1ccc(F)c(C(=O)c2c[nH]c3ncc(Cl)cc23)c1F [PLX4720] (first compound 0.04 µM, partner dose 0.08 µM) gave a cell count [1] of 82.5%, a cell count [2] of 83% and a cell count [3] of 110%. The cell count [4] was 73.6%, the cell count [5] was 77.5% and the cell count [6] was 103%. For the same molecule, the cell count [7] was 91.5% and the cell count [8] was 63.4%.
`Cc1cc(Nc2cc(N3CCN(C)CC3)nc(/C=C/c3ccccc3)n2)n[nH]1` + C=CCNC1=C2C[C@@H](C)C[C@H](OC)[C@H](O)[C@@H](C)/C=C(\C)[C@H](OC(N)=O)[C@@H](OC)/C=C\C=C(/C)C(=O)NC(=CC1=O)C2=O [Tanespimycin] (first compound 0.04 µM, partner dose 0.002 µM) gave a cell count [1] of 102%, a cell count [2] of 91.2% and a cell count [3] of 77.3%. For the same molecule, the cell count [4] was 91.9%, the cell count [5] was 95.9% and the cell count [6] was 94%. For the same molecule, the cell count [7] was 99.6% and the cell count [8] was 87.7%.
Work on `CC(C)C[C@H](NC(=O)[C@H](Cc1ccccc1)NC(=O)c1cnccn1)B(O)O` [Bortezomib] + O=C(O)[C@@H]1[O][Sb](=[O])([O][Sb]2(=[O])[O][C@H]([C@H](O)CO)[C@H](O)[C@H](C(=O)O)[O]2)[O][C@H]([C@H](O)CO)[C@@H]1O [stibogluconate] (first compound 0.001 µM, partner dose 2 µM) yielded a cell count [1] of 97%, a cell count [2] of 97% and a cell count [3] of 89.3%. It also gave a cell count [4] of 94.9%, a cell count [5] of 99.6% and a cell count [6] of 96%. It also gave a cell count [7] of 104% and a cell count [8] of 104%.
